Here are results for 49 molecules from PubChem BioAssay AID1963576 (National Center for Advancing Translational Sciences (NCATS), 2024).

The structures appear in SMILES notation. Hit rate of the full screen: of about 46,000 compounds, about 60 (0.1%) were called active. Another 3% or so got no clear call; they are omitted. Calls follow the shape of the dose curve; as a rule, active = well fitted inhibition curve with a large enough effect; inconclusive = small, poorly fitted or top-dose-only effect; inactive = no such curve, though single readings can be large or run the other way. The list shows a part of the results.

This assay in a line: Primary qHTS assay for Inhibitors of ovarian cancer metastasis using an organotypic tumor microenvironment (TME) model. Also: nearly all actives have a fitted effect of over 65% in size.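 As to activity change, negative = inhibition: plate controls were DMSO wells for no effect and tomatine positive control wells for full effect.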 The note with it: SKOV3ip1-GFP adhesion/invasion on 3D omental model, fluorescence; series mostly up to 45.8 µM; activity change, negative = inhibition: at the top concentration. Summed up:
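qHTS, 4-pt dose (0.36-46 umol/L); SKOV3ip1-GFP, 1,200 cells/well, no FBS; primary omental fibroblast/mesothelial co-culture 48 h pre-grown; 2 h RT + 16 h 37 C; PBS wash, 4% PFA; GFP count 488/509 nm.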
For orientation: Quantitative high-throughput screening tests each substance at several concentrations.
`O=C(Cn1c(=O)c2cccn2c2ccc(F)cc21)Nc1cccc(F)c1`: the outcome was inactive.

`Cc1ccc2c(CC(=O)Nc3ccc(S(=O)(=O)N4CCCC(C)C4)cc3)coc2c1` (centres undefined): the “activity change, negative = inhibition” value was inactive: -21.1%.

With `O=C(NCCc1ccccc1)c1ccc2c(c1)CCN2S(=O)(=O)c1ccc(Cl)cc1`, the “activity change, negative = inhibition” value is inactive: 0.0812%.

As for `CC1CCN(S(=O)(=O)c2ccc3c(c2)N(CC(=O)NCCN(C)C)C(=O)CS3)CC1`, the “activity change, negative = inhibition” value was inactive: 11.3%.

Take `COc1ccccc1CNS(=O)(=O)c1c(C)nc2sc(C)cn2c1=O`: the result was inactive.

With `O=C(O)c1ccc2c(c1)N(Cc1ccc(F)cc1)C(=O)c1ccccc1S2=O` (centres undefined), the “activity change, negative = inhibition” value is inactive: 25.1%.

For the molecule `COc1ccccc1CNc1ncnc2c1nc1n2CCCC1`, the molecule was classed as inactive.

With `Cc1ccc(Cl)cc1NC(=O)c1cc(S(=O)(=O)N2CCOCC2)cn1C`, the outcome was inactive.

For the molecule `Fc1ccc(-n2nc(-c3ccccc3)c3cnc4ccccc4c32)cc1Cl`, the “activity change, negative = inhibition” value is inactive: 2.85%.

`CCOc1ccc(-c2cc3c(=O)n(CC(=O)NCc4ccccc4)ccn3n2)cc1`: the result was inactive.

Turning to `Cc1oc2ncnc(N3CCOCC3)c2c1C(=O)Nc1ccc(Br)cc1F`, the “activity change, negative = inhibition” value was inactive: -9.52%.

Turning to `OC(c1ccccc1)c1nc2ccccc2n1Cc1c(F)cccc1Cl` (centres undefined), the “activity change, negative = inhibition” value was inactive: 14.6%.

Take `O=C(Nc1ccc(Cl)cc1F)c1cc(S(=O)(=O)NC2CCCCCC2)ccc1F`: the “activity change, negative = inhibition” value was inactive: 11.8%.

Consider `CCCc1nn2c(=O)cc(COC(=O)c3ccccc3NC(=O)c3ccc(OCC)cc3)nc2s1`, for which the “activity change, negative = inhibition” value is inactive: 4.28%.

Regarding `CCc1ccc(NC(=O)CN2C(C(=O)OC)=C(c3ccccc3)c3ccccc3S2(=O)=O)cc1`, the “activity change, negative = inhibition” value was inactive: -28.6%.

As for `CC(C)CCNC(=O)C1CCC(CNS(=O)(=O)c2cccc3nsnc23)CC1` (centres undefined), the “activity change, negative = inhibition” value was inactive: -4.3%.

With `COCCNC(=O)CSc1nc(-c2ccc(C)cc2)[nH]c1-c1ccc(OC)cc1`, the “activity change, negative = inhibition” value is inactive: 7.34%.

On to `O=C(CSc1nc(=O)n(Cc2ccccn2)c2c1CCC2)Nc1cccc(Cl)c1`, for which the “activity change, negative = inhibition” value is inactive: 5.73%.

Take `Cc1ccc(-c2c3c(=O)n(C)c(=O)n(C)c3c3c(C)nc4ccccc4n23)cc1`: the “activity change, negative = inhibition” value was inactive: -9.04%.

Regarding `Cc1cc(N2CCN(c3ccc(F)cc3)CC2)n2cnnc2n1`, the “activity change, negative = inhibition” value is inactive: 1.93%.

Consider `COc1ccc(NC(=O)Cn2ccn(-c3ccc(C)c(C)c3)c(=O)c2=O)cc1Cl`, for which the “activity change, negative = inhibition” value was inactive: -4.82%.

With `Cc1cccc(-c2nc3cc(NC(=O)COc4ccccc4F)ccc3o2)c1`, the “activity change, negative = inhibition” value was inactive: -9.87%.

As for `Cc1ccc(C(=O)c2cn(Cc3ccccc3)c3ccccc3c2=O)cc1`, the “activity change, negative = inhibition” value is inactive: 16.2%.

With `Cc1cccc(NC(=O)c2oc3ccccc3c2NC(=O)Cc2coc3cc(C)cc(C)c23)c1`, the “activity change, negative = inhibition” value was inactive: 8.45%.

`Cc1ccccc1OCC(=O)Nc1ccccc1C(=O)OCc1cc(=O)n2nc(C3CC3)sc2n1`: the “activity change, negative = inhibition” value was inactive: -0.317%.

In the case of `COc1ccc(N2CCN(C(=O)Nc3ccccc3Cl)CC2)cc1`, the “activity change, negative = inhibition” value was inactive: -3.6%.

With `CCc1ccccc1NC(=O)Cn1c(=O)n(CCc2ccccc2)c(=O)c2ccccc21`, the “activity change, negative = inhibition” value is inactive: 5.54%.

In the case of `CCCC(=O)n1nc(-c2cccnc2)nc1NCc1ccccc1`, the “activity change, negative = inhibition” value is inactive: 0.163%.

`CCOc1ccc(NC(=O)CCC(=O)N2CCSc3ccccc32)cc1`: the “activity change, negative = inhibition” value was inactive: 6.82%.

On to `O=C(NCCc1ccc(Cl)cc1)c1ccc(CSCc2ccc(Cl)cc2)o1`, for which the result was inactive.

Turning to `Clc1ccccc1-c1nnc(SCc2nc(-c3ccccc3)no2)n1-c1ccccc1`, the “activity change, negative = inhibition” value was inactive: -3.5%.

On to `COc1cccc(NC(=O)CSC2=Nc3ccccc3C3=NC(CC(=O)NCc4ccccc4OC)C(=O)N23)c1` (centres undefined), for which the “activity change, negative = inhibition” value was inactive: 0.847%.

Consider `O=c1oc2ccc(Cl)cc2cc1-c1cn2c(n1)sc1ccccc12`, for which the outcome was inactive.

Take `CCOC(=O)N1CCN(S(=O)(=O)N2CCCC(C(=O)NCc3ccc(OC)cc3OC)C2)CC1` (centres undefined): the molecule was called inactive.

With `CCCCNC(=O)CCSc1nc(-c2ccc3c(c2)OCO3)cc(C(F)(F)F)n1`, the “activity change, negative = inhibition” value is inactive: -16.3%.

In the case of `O=C(Nc1ccc2nc(SCC(=O)N3CCOCC3)sc2c1)c1cccc(F)c1`, the result was inactive.

Take `COc1ccc(NS(=O)(=O)c2c(C)nc3scc(C)n3c2=O)cc1`: the “activity change, negative = inhibition” value was inactive: -2.41%.

Take `Cc1ccnc2nc(NC(=O)c3ccccc3Cl)nn12`: the “activity change, negative = inhibition” value was inactive: -6.7%.

As for `COc1ccc(C2C=C(c3ccccc3)Nc3nc(NC(=O)/C=C/c4ccccc4OC)nn32)cc1` (centres undefined), the “activity change, negative = inhibition” value is inactive: -2.42%.

As for `Cc1cccc(OCC(=O)N(Cc2ccc(N(C)C)cc2)Cc2ccco2)c1C`, the “activity change, negative = inhibition” value is inactive: 4.33%.

For `CCOc1ccc(NC(=O)c2c(NCc3cccs3)sc3c2CCCCC3)cc1`, the “activity change, negative = inhibition” value is inactive: 24.5%.

In the case of `COC(=O)c1scc(-c2ccccc2)c1S(=O)(=O)Nc1ccc(C)c(Cl)c1`, the “activity change, negative = inhibition” value is inactive: -13.5%.

On to `COc1ccccc1CNC(=O)c1ccc(CS(=O)c2ccccc2Cl)o1` (centres undefined), for which the result was inactive.

As for `O=C(NCC1CCCCN1)c1cc(OCC(F)(F)F)ccc1OCC(F)(F)F` (centres undefined), the “activity change, negative = inhibition” value is inactive: 9.92%.

Turning to `CC(=O)c1cc(-c2ccccc2)n(CCC(=O)NC2CCCCC2)c1C`, the “activity change, negative = inhibition” value is inactive: -8.12%.

Take `CC12CN3CC(c4ccccc4)(CN(C1)C3c1ccc(Cl)cc1)C2=O` (centres undefined): the “activity change, negative = inhibition” value is inactive: -8.99%.

With `CCc1ccc(S(=O)(=O)c2nnn3c2nc(NC(C)C)c2cc(Cl)ccc23)cc1`, the “activity change, negative = inhibition” value is inactive: 1.58%.

As to `CCC(=O)N1CCc2cc(Br)cc(S(=O)(=O)N3CCCC(C(=O)Nc4ccc(OC)cc4OC)C3)c21` (centres undefined), the “activity change, negative = inhibition” value was inactive: 6.46%.

Take `Cc1cccc(N(CC(=O)N(C)Cc2ccccc2)S(=O)(=O)c2ccccc2)c1C`: the “activity change, negative = inhibition” value is inactive: 5.65%.
